Over roughly 4,500 sequences, “median log2 fold change of GCK-ALFA target abundance (FLAG IP / Myc IP barcode read proportion)” has its median near 0.078; the lowest 2% begin near -0.6. The list shows a part of the results.
B1: GBRAP_78_6703 (protein)
chain: KIEELIDEAIELVNKAAKLLVNEKTELANDLLGLLVDASTLLWEAEEKGGDLKLLKEALKKLEEALKLAKKLDIPNKEEIIKLLKEAIEKVKEAIKLKEK
B2: GBRAP_52_6025 (protein)
chain: MAARIQAVVDEALALVKAGDLAAARALLAAAVASMNDEEVRLFVDALAARAAAAAPEDHDAVWTLTELAAAAMEEAGKDEALADDLEARTAAALYEAEQR
B3: GBRAP_52_5866 (protein)
chain: MRERLREALAEALALVKAGDLAAARALAAELVASISEEEAELLIEVAAEYAATLPREDLDAAWTLMEILAEELEAAGFPEELVTLFEGEVGSAIAKVEAA
B4: GBRAP_159_3956 (protein)
chain: MEEVLAALRERLEALGASEAVIRAAVEAVELAFEGEDAGSIAAHLLHMATVLGASTEEILVTLEALPEDLRVEVAELLAEMFEELGDEEMAAALRAFLAA
B5: GBRAP_83_6974 (protein)
chain: KEEIVVAAPADRVEEAVEIAIDLSKNYGYKVTLEVITTPEEKEKVLEAVERLMKEVKDIEIEVILEGATKEEAEELEKRLKEIAKKLGVNAEITVELVEP
B6: GBRAP_11_2809 (protein)
chain: KKEALEKALELAKKAAETVKKLLKEGVDNKELQEEIKKLLEELKKLAEKYLDKGSQKLVEIAEELWKEALEDPENAEEYLKQLEATLRVLAGNILLEIEE
B7: GBRAP_184_5050 (protein)
chain: KIKEEVIEANNLEELKKKLEELKEKMKNFKGELIVHVKLPEFTLEMVEEILNTLKEILDKGYASSITVGLDGKMSEEVVDFALEKADKAGIKVVLALEEE
B8: GBRAP_52_6152 (protein)
chain: AAARAAEAARAFVAAVRAGDEARAEAIMREIAATFDDEEIALFLDEVARLVAGLSPEDRERVVEAVLRFEDIAEAAGHDEELLSYHTARVAAAAYAALQA
B9: GBRAP_160_4199 (protein)
chain: SEKIEKIIKELREETERVIAAIPELSREEVANFAEVEFGSVLMEAVELGVENDEIEDTIADAADEIKKFLAENQNASNEEIAAGIREITEKAIEEIKKIA
B10: GBRAP_137_3633 (protein)
chain: MKVVIETKTYGDVVEIKVTVEDPEKAEEAKELLLDIAHEKGALAVSLEIKEDGTLEAVIWVPKEKAEELIEAIVKAFQTEFGADVTIKDLDTGEVKEYKA
B11: GBRAP_160_4132 (protein)
chain: KEELEALIKEIKETTEEAIELIEGESVENAKVIAKVALGDILLLVDSNEAVSEEVEDKIGEIVDEAEKTLDENPNLSVEEIKKLLKETAEKIVEILEAER
B12: GBRAP_184_5298 (protein)
chain: TVKHVTIEADTAEEAIEQILKLAEEARKAGVKLSLDLILNNVSVEGFRRIAELLKELKEEGIIEDAVIEITDDKSEEEIDEFIKIADEAGVKLVVALSDE
B13: GBRAP_52_5924 (protein)
chain: SSEELKAKAKEILEAALAGDKEKMEAKIKEIAETLSDEEIEGVIAELARLVAELGPEHYDVFAEIMDILEDAVEEAGRDVERVQAAIARGAGLLYDAEQA
B14: GBRAP_11_2831 (protein)
chain: KKEKLKRLAEKAKEVADKLEKLIESGNPTQEELDELLKLAEELLKEVKEYGDESLIKIAEIALEEIKKAKENPETQKEHLQHALAFARVLEGQFLLELEE
B15: GBRAP_80_6752 (protein)
chain: GLAELEKALAELKELDPELGERLREVLERALEAGVPVSDATRLVQALVELAKLDLEKARKLGEEFIKELEEELEAGDLEGARATIIDYTSDALLAVEELE
B16: GBRAP_184_5235 (protein)
chain: KVLEREIEAKNAEELREKLEEVAEEAEKAGAKVRLIIKVEELTKEKAEVIAEMLKKMAAKGLIDLVEVESTTKIEEENIDLLVEAADAAGVRLVLALEEE
B17: GBRAP_160_4311 (protein)
chain: SEELEELKKNLKEIVEEAKKMIEGETAEQRKTIARVTLGDILLEAFENPAISDELEDKIGEIVDAAEAELDANPDLTEEEVKELLEKTLKEILELIDKSE
B18: GBRAP_184_5355 (protein)
chain: TTRDVLIEADTVDEAIAQLRAAADEAAAAGATLNVLIRVPINTVEEARALMAAVAEAAARGVIAGVVGIDGVSNDEAIIDALLAGADAAGVRLVLALDDE
B19: GBRAP_39_5695 (protein)
chain: EKEEEAEDTFSYYEAKGVKYQVEKGLTDEEVEEETRRLAAEAKAAHPELAALIDELERLAREAGELAVIALYGLLLDLKEGKPLEEIREDLELLIAYLKS
B20: GBRAP_160_4618 (protein)
chain: MEKIEELIKYIKEEFEEAKEMIEGQTVEERAAIVDVTFGEIILKAEELEVVSDETLEKIDEIGRETVKTILENPDLTDEEIKKLIEEAEKKIIELVEKDK
B21: GBRAP_83_6878 (protein)
chain: AEEITVAGPASRGAEIADAVIDLTKEEGYTVTVEVLVTPEELADVLALARRLAAAGVNVELIVVGRGITPEQAAALEAELRAIFAAAGVDVTVEVRLEEP
B22: GBRAP_39_5653 (protein)
chain: EEEEENELIFEYLIALASKYQVDKNISEEELIAHGKELLEKMAKEHPEIKELVEKLLELMEKGDLETKEAIVGIALLYEKGEPIEKIKEYLEKFLEYVES
B23: GBRAP_14_3780 (protein)
chain: MEKIEEIIREKAEEIIELLTEIAPEKAEEITEIVEEVVERTIARIKETGNAEEAAEEGRDELLARIAELTADLPAETRARMLAVVAVEFGQAILEIEELL
B24: GBRAP_52_5892 (protein)
chain: KLEEAIKLLEEAIEAMKAGKLEEAEKILKEIVRNFDDETILEAVRELAKKILSKSLEEAEAFYKTMELLAEIWEEEGRDENIASEIEAIAGAALYTVEQK
B25: GBRAP_52_6375 (protein)
chain: AVEEAAKLLREALELIIEGGPEEEVEKLAEEIVKYSEEVIEEAAKLVAEEVLKLSPEEAEKYLEASFKLAEILEEKGLKSEIASLIEAEIGKAAYEVLQK
B26: GBRAP_35_5627 (protein)
chain: DFVEEVAEMVVATIEDAILSKEDMDPETFIDLAIKIARAALEVAKEIKDKKEEAKKILEKLKELLEAAIKLAKETGADEKKIKELEELLKEAEKLEKELK
B27: GBRAP_80_6786 (protein)
chain: MEEEIEKLIEEIEKKNPEVAKIIKEIVELLKEIGVPLEIIKEIVEVFLDALSLPKETQLKIAKEVLEEAKELSEYKDEFSPEDIGRMVLAEALTLVELAK
B28: GBRAP_78_6589 (protein)
chain: AIEEAVDEFLKKAGELMKLLSKDPSELAQDLLGELIDQVSEIEEAFTEENDKEKIKEAAEKAAKALKAALEKAEQFSPETVKAIEAALAAAEKLIKLLNE
B29: GBRAP_11_2643 (protein)
chain: KKEKLKKAAELAKKAIEALKKLLEEGVDNEELRKKIEELLEELSKLVKEYADESLKKLVEIAKELWKKSLEDPENAEEYVKNLLAALRVLSAELEEEIEE

Biological target: GABARAP, O95166
Sequence (O95166 whole entry, the tested form may be a part): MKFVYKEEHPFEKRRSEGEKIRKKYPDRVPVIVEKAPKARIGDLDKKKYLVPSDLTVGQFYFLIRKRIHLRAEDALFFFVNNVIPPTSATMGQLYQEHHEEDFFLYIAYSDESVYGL
Assay: median log2 fold change of GCK-ALFA target abundance (FLAG IP / Myc IP barcode read proportion) (log2 ratio); each designed protein is fused to an ALFA-tag nanobody in HEK293 cells to bring the named protein to FLAG-tagged glucokinase (GCK); Myc marks an untargeted standard; higher = target protein stabilised (more abundant)
Conditions: target protein: 3xFLAG-MCP-GCK-ALFA reporter; HEK293 landing pad (RPLP)
How it was run: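 Sequencing of reverse-transcribed, amplified circular RNA barcodes from anti-FLAG and anti-Myc immunoprecipitates provided the readout for an ALFA-nanobody-fused binder library recombined into HEK293 landing-pad cells. Those cells were induced with 2 μg mL^−1 doxycycline, transfected with a plasmid expressing a FLAG-tagged target and a Myc-tagged standard, and lysed after 48 h. Target abundance is the per-binder median log2 ratio of FLAG to Myc barcode read proportions. Only barcodes at a proportion of ≥10^−7 in both replicates and binders with ≥3 barcodes per replicate were kept, with a 10^−6 pseudocount added before the two replicates were pooled.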

| Binder | median log2 fold change |
| --- | --- |
| B1 | 0.343 |
| B2 | 0.19 |
| B3 | -0.0175 |
| B4 | 0.234 |
| B5 | -0.00525 |
| B6 | 0.15 |
| B7 | 0.0158 |
| B8 | 0.0915 |
| B9 | -0.137 |
| B10 | -0.216 |
| B11 | -0.481 |
| B12 | -0.0195 |
| B13 | 0.22 |
| B14 | 0.224 |
| B15 | 0.123 |
| B16 | -0.333 |
| B17 | -0.202 |
| B18 | -0.11 |
| B19 | 0.243 |
| B20 | 0.27 |
| B21 | 0.0866 |
| B22 | -0.308 |
| B23 | -0.0168 |
| B24 | 0.127 |
| B25 | 0.136 |
| B26 | -0.449 |
| B27 | -0.00858 |
| B28 | 0.219 |
| B29 | 0.271 |

— the supplement of paper PMC12632987
